# In publication PMC4336329 (PLoS ONE, 2015):
# The whole screen tested about 310,000 compounds, of which about 14,000 (4.5%) showed an effect of 50% or more. The effect is printed as a negative number. The list shows a part of the results.
# Target: human ether-à-go-go-related gene (hERG) potassium channel (human, UniProt Q12809)
# Test: primary screen, population patch clamp on CHO cells stably expressing hERG
# 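Further: peak tail current of the secondary pulse compared with the same well before compound.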
# human ether-à-go-go-related gene (hERG) potassium channel, sequence (Q12809 whole entry, looked up): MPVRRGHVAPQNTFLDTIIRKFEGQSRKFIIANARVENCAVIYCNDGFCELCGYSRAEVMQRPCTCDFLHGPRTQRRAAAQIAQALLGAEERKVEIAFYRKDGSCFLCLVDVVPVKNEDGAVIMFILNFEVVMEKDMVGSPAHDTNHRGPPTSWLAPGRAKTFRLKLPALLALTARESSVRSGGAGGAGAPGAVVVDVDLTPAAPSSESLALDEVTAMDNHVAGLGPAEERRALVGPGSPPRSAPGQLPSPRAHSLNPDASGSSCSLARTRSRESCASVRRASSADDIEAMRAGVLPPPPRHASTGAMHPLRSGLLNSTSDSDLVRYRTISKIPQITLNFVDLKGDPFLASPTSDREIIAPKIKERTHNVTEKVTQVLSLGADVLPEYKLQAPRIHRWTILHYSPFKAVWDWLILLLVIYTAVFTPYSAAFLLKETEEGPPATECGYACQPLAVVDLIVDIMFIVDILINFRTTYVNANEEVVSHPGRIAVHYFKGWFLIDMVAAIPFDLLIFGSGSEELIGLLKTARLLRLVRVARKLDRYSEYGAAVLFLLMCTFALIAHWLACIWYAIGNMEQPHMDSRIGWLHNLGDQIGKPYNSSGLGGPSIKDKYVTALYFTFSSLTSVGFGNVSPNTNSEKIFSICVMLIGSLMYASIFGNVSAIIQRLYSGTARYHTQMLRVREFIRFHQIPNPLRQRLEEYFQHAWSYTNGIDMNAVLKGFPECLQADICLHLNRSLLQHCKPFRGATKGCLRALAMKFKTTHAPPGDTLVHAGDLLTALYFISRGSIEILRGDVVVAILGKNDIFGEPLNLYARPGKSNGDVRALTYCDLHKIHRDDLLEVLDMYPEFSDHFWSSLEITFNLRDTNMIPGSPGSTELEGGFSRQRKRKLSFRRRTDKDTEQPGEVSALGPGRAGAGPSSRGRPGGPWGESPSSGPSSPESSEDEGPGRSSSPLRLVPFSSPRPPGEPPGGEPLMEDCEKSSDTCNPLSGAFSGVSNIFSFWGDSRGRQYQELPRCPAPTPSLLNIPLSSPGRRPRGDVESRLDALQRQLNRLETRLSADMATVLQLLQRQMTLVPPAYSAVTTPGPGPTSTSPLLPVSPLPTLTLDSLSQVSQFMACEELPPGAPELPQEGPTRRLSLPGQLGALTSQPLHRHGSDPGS
row,Compound,"hERG current change (%, negative = inhibition) at 10uM [%]"
1,CC(=O)Nc1nc(C)c(Oc2ccc(Cl)cc2)c(=O)[nH]1,17.2
2,CC(C)(C)C1CCC(=NNc2ccc(S(N)(=O)=O)cc2[N+](=O)[O-])CC1 (centres unmarked),7.42
3,Cc1nn(Cc2ccccc2)c(C)c1C(=O)OCC(=O)Nc1ccccc1SCC#N,-26.9
4,CCC(c1nc2ccccc2c(=O)n1-c1cccnc1)N1C(=O)c2ccccc2C1=O (centres unmarked),-4.61
5,O=C(Nc1cccc([N+](=O)[O-])c1)NC1CCS(=O)(=O)C1 (centres unmarked),-11.6
6,CCC(C)C(=O)Nc1ccc(S(=O)(=O)Nc2nccs2)cc1 (centres unmarked),-8.77
7,CC(C)(C)n1ncc2c(=O)n(CC(=O)Nc3ccccc3)cnc21,27.2
8,Cc1ccc(S(=O)(=O)CNC(=O)c2ccccc2)cc1,7.71
9,COc1cc(/C=C2\SC(=O)N(CCNC(=O)c3sc4cc(F)ccc4c3Cl)C2=O)cc(OC)c1OC,20.1
10,O=C(COc1cccnc1[N+](=O)[O-])Nc1ccc2c(c1)CCC2,-1.54
11,O=C(COc1ccccc1Cl)NCCNC(=O)c1ccco1,1.86
12,COc1ccccc1Nc1[nH+]c(C)cs1.[Br-],2.66
13,Cc1ccc(S(=O)(=O)N(Cc2cc3ccc(C)cc3[nH]c2=O)c2ccccc2)cc1,1.16
14,O=C(Nc1nc2ccc(Cl)cc2s1)c1ccco1,-1.54
15,CCOc1ccc(N(C)Cc2cc(=O)oc3ccc(OCC)cc23)cc1,-1.17
16,Cc1ccc(C)c(NC(=O)CCC(=O)NN=C2CCCC2)c1,15.6
17,COc1ccc(C(=O)N2CCCC(CNC(=O)c3ccccc3Cl)C2)o1 (centres unmarked),17.9
18,COc1ccccc1NS(=O)(=O)c1cccc(-n2c(O)c(C=Nc3ccccc3C(=O)O)c3ccccc3c2=O)c1,2.75
19,COc1ccc(-c2cc(C(=O)Nc3cc(C)on3)no2)cc1OC,20.7
20,CC1CCCC(C)N1/N=C/c1ccc(N(C)C)cc1 (centres unmarked),-7.66
21,Cc1ccc(C(=O)Nc2ncn[nH]2)cc1,8.36
22,N#CC(C(N)=O)=C1CCC2(CC1)OCCCCO2,-2.98

row,Compound,"hERG current change (%, negative = inhibition) at 10uM [%]"
1,Cc1nn(Cc2ccc(Cl)cc2)c(Cl)c1/C=N/NC(=O)CNc1ccccc1F,1.56
2,CC(=O)NC1CCCc2c1cnn2-c1ccc(C(C)(C)C)cc1 (centres unmarked),-29.1
3,COc1cc(C)ccc1OCCOCCN(C)Cc1ccccc1.O=C(O)C(=O)O,-32.8
4,COc1ccc(CNCc2cccc(Cl)c2)cc1,-25.4
5,O=C(N/N=C/c1ccc(Cl)c(Cl)c1)c1ccc2nc[nH]c2c1,14.6
6,Cc1ccc(NC(=O)CSc2nc(=O)n(CCN3CCOCC3)c3c2CCCC3)cc1,-27.5
7,CC(=O)Nc1cccc(-n2nnc(SCC(=O)c3ccccc3)n2)c1,2.38
8,O=C(CCC(=O)OCC(=O)c1cccc([N+](=O)[O-])c1)Nc1ccccc1Cl,7.66
9,COc1ccc(Cl)cc1NC(=O)CN(C)CC(=O)N1CC(=O)Nc2ccccc21,9.01
10,CCOc1ccc(CN2CCNC(=O)C2CC(=O)NCCc2ccccn2)cc1 (centres unmarked),-0.32
11,Cl.NCCCCCc1nnc(SCc2ccccc2Cl)o1,-43.5
12,CCOc1ccc(C(=O)COC(=O)c2ccc(-n3cnnn3)cc2)cc1,29
13,C#Cc1ccc([C@@H]2C=C(C(=O)NCc3ccccc3)O[C@H](OCCCCO)C2)cc1,-19.6
14,CC1(C)CC(=O)c2cc(NC(=O)c3ccc(F)cc3)c(=O)oc2C1,3.59
15,CCC(C)NC(=O)c1ccccc1NC(=O)c1ccc(CSc2ccccc2)cc1 (centres unmarked),11.1
16,COc1cc(OC)cc(C(=O)Nc2cccc(NC(=O)c3cc(OC)cc(OC)c3)n2)c1,11.8
17,O=C(NCc1ccco1)c1ccc2c(=O)n(CCC3=CCCCC3)c(=O)[nH]c2c1,23.3
18,OCC[C@H]1C[C@@H](O)[C@H](O)[C@@]2(CCCc3ccccc3O2)O1,13
19,Cc1ccc(-n2c(O)c(C=Nc3ccc(S(=O)(=O)N(C)C)cc3)c(=O)[nH]c2=O)cc1,9.9
20,COc1ccc(C(=O)NCCc2nnc3ccc(SCC(=O)NCc4ccc(F)cc4)nn23)cc1,12.6
21,Cc1cccc(OCC(=O)NCC(=O)N/N=C/c2cccs2)c1,1.15
22,CCOc1ccccc1CNC(=O)C1CCN(C(=O)c2sccc2-n2cccc2)CC1,-1.29
